# The other results are listed elsewhere or left out. At the low end of the ranking, values are background and their order means little. Measured with an extract: partners may take part in the binding.
# Target: T1, HNF4alpha8 (COS-7 nuclear extract) (UniProt P41235-5)
# T1 sequence: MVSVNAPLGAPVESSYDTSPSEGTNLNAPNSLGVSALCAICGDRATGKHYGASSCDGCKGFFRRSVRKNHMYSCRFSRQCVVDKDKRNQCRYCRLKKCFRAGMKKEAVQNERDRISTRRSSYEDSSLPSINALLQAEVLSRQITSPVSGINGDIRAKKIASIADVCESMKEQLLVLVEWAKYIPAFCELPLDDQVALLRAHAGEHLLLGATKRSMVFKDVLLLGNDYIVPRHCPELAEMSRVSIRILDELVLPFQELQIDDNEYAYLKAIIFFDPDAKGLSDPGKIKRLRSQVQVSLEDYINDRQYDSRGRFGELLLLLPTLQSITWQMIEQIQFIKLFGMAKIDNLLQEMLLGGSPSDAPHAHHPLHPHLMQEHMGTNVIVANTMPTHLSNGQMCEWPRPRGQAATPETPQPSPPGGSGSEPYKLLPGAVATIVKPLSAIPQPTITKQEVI
# Experiment: protein-binding microarray
# Conditions: COS-7 nuclear extract on double-stranded Agilent 4x180k PBM; binding buffer, salt, pH and temperature not given; high values mean tight binding; double strand, one strand shown; sequences stand for … in …GCCTAGGGAGATTAGAGTATCGGTCGA
row,Sequence,binding signal (log2 normalized intensity)
1,AGGACTTTCAACCCTGTGATGACCCCATAC,5.2
2,GCCCCATCTATCTAGCCTGAAGTCTTAACC,0.217
3,GTACTTTGTACATGGGAATAGACATTCCAG,1.99
4,TCCTGATGACTGCAGAGCTTGCTCTCACCA,-1.28
5,CAGCGGGGTCAGAGAAACCTGGCTGCGAGT,-1.29
6,AGCACAGGAAAGGGCTTTGGGGACTGAAGA,-1.24
7,CACTTGTTTGCACAAAGGGTTATGGGAAGT,0.514
8,TTCTGAAGCCCTACAGCCCACAATTGCATG,-0.739
9,GAATGGAAACCCCTGTAAGTCCAAACAAAA,1.63
10,AGGTCCAACTGACATCTGGAAATGTTTGTA,1.41
11,TCCCCTAGGTGATTAGAAGATAGCTTTAAA,-1.32
12,TAAGTAGCCAAGATTACAGCCACATGCTAA,-1.35
13,ATATTCCTGGAATGACAAGAATTGGAACCC,2.03
14,AGAGACTATGTGGTTTTGTAAATATAGGAT,0.393
15,GAGAGAGCAGGTTGAGTATCTACCACATAC,-1.25
16,AGGTCTTGGTTGTTCTGTTTAACAGAGATT,1.09
17,ATAAAAAGATAATGCTGGACATGACTGCAC,-1.4
18,TTCTGGCCAGGCAGAGCAGGTTCTCAGGCC,-1.36
19,CCAGTTGGTTGCTAAGAGACAGCTCCACAG,-1.33
20,ATCAGTCCAGGAGGGTCACAAGTCCCTGTC,1.43
21,GAACTAATTTGTCTTTTCTCCCCCGATAAG,4.51
22,CACGTGAGAGGGTCGTGATCGATTGAGCAA,-0.974
23,GACCTGTCAAGCAATGATCTTCATGAACTT,1.75
24,TTTGCTGTGGTAGGCTGTCCTGTGCAATGG,1.1
25,TGGATACCCTTCCCCCCAAGGCTTCCAATC,4.14

row,Sequence,binding signal (log2 normalized intensity)
1,TTTATCTCCCACATGCTGTCTAGGCCAGAG,-1.09
2,CACCCCCTATCTTGTGTAATAACGAGACCT,1.38
3,GCTGACTAACAAGCTGCCAAACTCTCACTC,-1.24
4,TGCCCTAAGCCACAGACAAATATTTGCTGT,-0.484
5,AAACAAATACCATCATCTCAGGGAGTGCAA,-1.07
6,TTAACACAAGTTATTACCGTGATGTTCGTT,1.14
7,ACCCCACACACCAAAACTCTCTCTCTGTGT,0.344
8,CTGAGCCCTAAGAAATCTCCAAGTCAAACA,-1.41
9,TCTGATTAGGTGGATTCGCCCAGCATAGCA,-1.34
10,CCCCAGCCTGTTTCCCTAGCTTATATCCCC,3.01
11,GAGCCTTCAAAGGAAAGCAGGTGTTCACCT,-0.293
12,CCATGCAGCCAGGGTCAGGAGAAGCAGAAC,-1.34
13,TTAAAAAGCTGCAATGGCTTCACAATTCCT,-1.24
14,ACCCATCATGAGTAGGTTTACTAAAGGAAG,0.304
15,CATTCTACCCCTGTGGTTGACCTTTAGTCT,8.33
16,TAACAGGATTTTTGCTGAAGACAGGCCAGG,-1.27
17,GACAAGCAGTGACCAAGGGTCAGTTTGAAA,3.42
18,ATTACATATTAACCTTTGCCCCAGCTGTCA,6.73
19,CAGCTGAACCATATTCTTTACATTTATTAG,0.675
20,GGTCACATAGCCAGTAAATCATGGATCTGT,-0.373
21,AACATCAAATACCTCCAAGAGGTTTTAGGC,-1.34
22,CTTCAAAGGTCGTGTGCTTATCACATCTAT,1.33
23,TCAGTCTGGTTGAGGCAAGCAAAAGCCAAG,-1.29
24,CCCCTGCCACTTTCACAAATCATTACTATC,-0.768
25,GTATCCCAGGGACTTACTCAACTAGCTCCA,-1.4

row,Sequence,binding signal (log2 normalized intensity)
1,TTGGAGATCTGAACTCAAGCTCTTAAAGAA,-1.26
2,TCAGAAGCTGGGAGACCACTGGTGTAAGCT,-1.31
3,TTGGCTTGGTTCCACATCAGAGAGTTCAAA,1.89
4,GGTCACAGAAAGTGACGTGCAGAGGAGCAA,-0.619
5,GTGGGAGAGCAAGGGTCAAGGGTCATTTGT,7.65
6,CCTAAGGGCACCCTTCCTGCTTCCAGGCTT,-1.25
7,GAGGAACTCCAGAACCAAAGTCCTAGAGTC,-1.26
8,TTACCTTGACCAAAGTACAGTAATTTCACT,1.83
9,GGGCAGGGACTTTGCCCTTTTTAATGTTTC,5.8
10,CCTGAAGCCTTCCTTAATCCTTCAGTATGC,0.75
11,CTTAAATAATGCATACGCTAGCTTTCTGGT,-0.943
12,GCCATTTCTGAGCAAATATTTGGGGTATGT,1.24
13,CTCATGAGGGGCCTGTCAGGCCCAGAAACA,-1.26
14,ACCTCCTGGGCCCAAGTGCTCCTCCCCATC,3.58
15,ATAAGGGTGGCCATCCATCCTGGCGACAGC,-1.29
16,AAGCTGATAAGCCAAGAATGTACTCTCCCC,2.71
17,CACTGATAAAACTGGAATAAAGCAGTCCCT,-1.34
18,CCTTTTATTCAAACAGAGGACAGTTGTGTT,1.73
19,GAGGGAGCCAGGTTATGCAGAGCTTAGTTT,-1.27
20,TAAGTAAACTGTTCAAGACTTTCAGCCAAC,-1.33
21,GTCCAGAGTAGGCTTGCAAGACTGCATTCC,-1.2
22,CTTCCAGTCCACAGTCCAGTGACTATCTGC,1.02
23,TATGGAGAGGAAAGATGGGGATATAATCAT,-1.22
24,CTTTGTTTGGAAAAGATTAAGTTATCCATG,0.3
25,AGCAAGACTGCAAAATAGACAAACAGCAAT,-1.23

row,Sequence,binding signal (log2 normalized intensity)
1,TGTCTTCTGACCTTTGGCAATATCTCCCAG,3.96
2,ATGGTTTGACCCTGCGATAAGTAGATACCA,1.42
3,GGAAGGGCTGGAGACGCAGGAGATGAAAAA,-1.24
4,GACATAGTTTTTGCCCTTAAGCAGCATGTA,1.19
5,GCCCCAGTCCCCCGGACCAGGCCGGGTCAC,4.3
6,ATCTCTTTGCAATGTAAACATCAAGGAAGA,-0.986
7,CCTAAATCTAAGCTGGACTTTGAACTTCAT,9.68
8,CCCCGCCCGCAGCCCAGTCTTGGCCCCACC,6.38
9,AAATAGATAAGTCCCTAAGAGGAATAGTCA,-1.35
10,TTCTTATCTCACACAGTACTTTGTACATGG,2.48
11,GAGGCTTTGAGTCATTGAGGCTTTGCCTTA,-0.699
12,TCTTTACACCATTGCAAGGATTCCAAATTT,0.0367
13,CAACCAAGGTTGCAGAGTGTCCCACTTCAG,-1.15
14,CTAGGATTCTTGCATGATCGATCACACAGA,0.0349
15,AGAGCATCAGCAATGAACAAAGGTCGGTGG,3.98
16,CAATCTCGAGATCATTTACATGTGTAACAA,0.79
17,GAGGTGAGAAGCCTGAAATGAGTTTCATTA,-1.38
18,GAGGGCTCAAGGTCTGCATGCCATTTTGCA,-1.01
19,GTTATCTATGGAACATGGACTTTGAACCTC,10.9
20,GGCCAAGGCAGATATACCAGATAAGGCAGT,-1.41
21,AATGGATCTAAGGACAAAGTCCAAGGAAGG,5.5
22,AAACCCTGAGGGTCAACACAATCTGATAGT,0.801
23,TAATGACTGATAATTGAAAACAGAGATTGG,0.102
24,CGGCGCCGGACGCGTCCTCGGCTCTGCGCA,-1.34
25,ACGTGGAAGAAACTCATCTCCAGATAAGAC,-1.37

row,Sequence,binding signal (log2 normalized intensity)
1,TTTAACCTCCCTGCAGGTCTCTAAATGGTA,0.259
2,GATGCCTAGGATTCTTGCATGATCGATCAC,1.29
3,GGCCTTTGGAATCAAACAGATGTAGACATT,2.31
4,TTGTATGCTTAACTATGTTTATCAGAGCAA,-1.25
5,CTTCTCCTCCCCTCCCCCCAGTTCCCTGGG,4.74
6,CTGAGCACTGTCTCAGGGTCCACATTCCAG,3.5
7,CGCTCCTCTCTGTATTCCCTCTCTTCAGAA,-1.09
8,TTTGATCTGGGTGGGGGTGGAGGCAGCAGC,-1.34
9,GAGGACTGAGCCCGCTCCACTCCGGGCGAT,-1.33
10,GAGGTCATGTACATGAAAGCAAGTTAAAAC,0.558
11,CCTGGAGCAAACTTACTCTGGGGGAACCTC,-1
12,ATTAGGACCTGTTTGTCTTGCTGGGGAGAT,0.928
13,TCAACACTGAAATAGCATACCTTTATTAAG,-1.33
14,GTTGAGTGAATGGATGGATCCGCAGCCAGG,-1.22
15,TCATATTTGTTATATTTGTTATACCAGACA,1.85
16,AAACAATGACCTCTGCACCCTTCCCTGAGT,4.47
17,ACATCTCCGAGTCCAGGGATAACAGTCCTG,-0.837
18,TTCTTTTTGAAGCAAAGCCTTTGAGCAGAT,0.807
19,CCTCTTTTAAGAAGCCAGTGTCTATTTACA,1.03
20,GGATTTTTTGGGTAAAGTCCAGGCAGGACA,2.29
21,ACACCGTATCATCAAACCTGTTATTTGCGC,0.609
22,TTTTTTTTTTTTTTTTTTTTGAGATGGAAT,2.54
23,CAGAGTAGCCTATCAGAAGAATCTGTATCA,-1.33
24,CCTTGGCCTCCCGGAGAGGCCCCGCCCCGT,4.86
25,TCTGGGAAATGTAGTTCCGGAGAACACGGA,-0.979

row,Sequence,binding signal (log2 normalized intensity)
1,TTCAAAGGACAGACTTTGGACCTGGCCCTC,6.56
2,CATGTTGAGTGGAATATGAGGTCAGGGTTC,3.26
3,TCCACATCAGAGAGTTCAAACTCTGAAGTT,1.61
4,CTTTCCTAATGGTACCATCTGCCACTCATA,0.0159
5,GGTACAGAAACAGCTGGATTGTTACATCAT,-0.216
6,GGTCCATAAAACCAGTCAGGCAAACAACAG,-1.42
7,TTTTAATGTGTGCTTTCAGGTGTGAACCCA,3.65
8,AGGGACTAAGCTTGTAGACCAAGGAGGCCT,-1.23
9,AGCCAAGCTCCCCTTTTAAACTGAAGCATG,-1.36
10,TTTAACTTGGCAAGGGGAGGCACTCATGGT,-1.21
11,GGGTCAAAGTCTGGATCCGTTAACAGCGGC,3.04
12,ATGTTAGTCTTGAGTCCCAAAGTCCAAAGG,6.25
13,GAGGATGGGAAGTCCAAAGTCTGCAGGGTA,3.76
14,GTCTCTCTCATTCACACCCTCAGCTGATGG,-1.08
15,CACAGCAGAGGAGCCCTGGGCTCAGAAATC,-1.39
16,CAAACGCCCCTTGGATGAATGGCTGATTGG,-0.218
17,AAGCCTGATGAAGCCTATAGTGCTCCCTCC,-0.779
18,ACTTCGACCTCACATTGTAGCTAAAATGTT,0.171
19,CAGGTTCTGCAACACTTTCTAAGGACACAA,-1.36
20,GCAGAGAAGACTTGGGGGAGGAGGGCAACC,-1.3

# — article PMC10726135
